The record followed here is PubChem BioAssay AID463173 (ICCB-Longwood Screening Facility, Harvard Medical School, 2010).

Among all 52,000 compounds or so, about 4,300 (8.3%) were called active. No stated cut-off is given here; in the data, active means survival mostly below about 52% (no sharp cut-off); inactive means mostly above about 56%. The list shows a part of the results.

This experiment relates to DeltatarO mutant. In words: S. aureus survival, RN4220 and DeltatarO strains – OD600, teichoic acid synthesis inhibitors, primary screen (AID 463173). The settings on record: S. aureus RN4220 wild type/DeltatarO growth, OD600, 18 h, hits give low values, screened at 18.75 µg/mL (by protocol).
Regarding `Fc1ccc(C(NCCc2ccc(Cl)cc2)c2nnc(-c3ccccc3)o2)c(Cl)c1` (stereo not drawn), the survival was active: -2%. The figure for `CCc1cccc(C)c1NC(=O)c1cc(S(=O)(=O)NCc2ccccc2Cl)ccc1F` is inactive: 97%. For `CC(=O)Nc1ccc(-c2nc3cc(Cl)ccc3o2)cc1`, the survival was inactive: 85%. Take `CC(=O)NCC(c1ccc2c(c1)OCO2)N1CCN(c2ccccc2)CC1` (stereo not drawn): the survival is inactive: 80%. The figure for `CCCn1c2ccccc2c2cnn(CC(=O)N(C)c3ccccc3CC)c(=O)c21` is inactive: 82%; for `Cc1ccc(-c2cc(-c3ccc4c(c3)OCO4)c(C#N)c(N)n2)cc1` it is inactive: 88%. `Cc1[nH]c2ccc(-c3nnc(SCCC#N)n3C)cc2c1C`: the survival is inactive: 92%. In the case of `COc1cc2c(cc1OC)C(Cc1ccc(O)cc1)N(C)CC2` (stereo not drawn), the survival was inactive: 102%.

`O=C(NC1CSC/C1=N\O)c1ccccc1` (stereo not drawn): the survival is inactive: 103%. To `COc1cc2nc(SCC(=O)Nc3c(C)cc(C)cc3C)n3nc(CCn4c(C)nc5ccccc54)nc3c2cc1OC` belongs inactive: 81%. In the case of `Cc1nn(CC(=O)Nc2ccccc2C(F)(F)F)c(=O)c2cccn12`, the survival was inactive: 93%.

As to `CCCCN(CC)CCNC(=O)CN1C(=O)COc2ccc(S(=O)(=O)N3CCCC3)cc21`, the survival is inactive: 94%.

Consider `Cc1ccc(CCNC(=O)CCn2nc(-c3ccccc3)ccc2=O)cc1`, for which the survival is inactive: 73%. For the compound `Cn1c(=O)c(=O)n(C)c2cc(NC(=O)c3cccc(F)c3)c(Cl)cc21`, the survival is inactive: 74%.

As for `CCCSCCCNC(=O)C1CCCN(c2nn3cc(-c4ccc(OC)cc4)nc3s2)C1` (stereo not drawn), the survival is inactive: 73%. On to `CCOc1ccccc1CNC(=O)CCCn1ncn2c(cc3occc32)c1=O`, for which the survival is inactive: 75%. Regarding `CCOc1ccc(C(=O)c2cn(CC(=O)Nc3ccc(F)cc3)c3cc4c(cc3c2=O)OCO4)cc1`, the survival was inactive: 133%. The figure for `COc1ccc(N(CC(=O)NCc2ccccc2Cl)S(=O)(=O)c2c(C)nn(C)c2C)cc1` is inactive: 70%; for `COc1ccc(CCNC(=O)Cn2c(=O)nc(-c3ccccc3)c3ccccc32)cc1OC` it is inactive: 113%; for `Cc1ccc2cccc(NC(=O)COc3cc(C)c(Cl)c(C)c3)c2n1` it is inactive: 75%.

Take `CN(C)CCCN(C(=O)c1ccc(Br)s1)c1nc2ccc(F)cc2s1`: the survival is active: -5%. As to `CCS(=O)(=O)c1ncc(N(Cc2ccccc2)Cc2ccco2)c(C(=O)Nc2ccc(C)c(C)c2)n1`, the survival is inactive: 52%. Turning to `COCCNC(=O)CCc1c(C)nc2c(-c3ccc(F)cc3)c(C)nn2c1C`, the survival was inactive: 85%. To `COc1cc(C(CC(=O)Nc2ccc(F)cc2F)N2Cc3ccccc3C2=O)cc(OC)c1OC` (stereo not drawn) belongs inactive: 93%; to `COc1ccc(CCNC(=O)CCCCn2c(=O)c3ccccc3n(Cc3ccccc3C)c2=O)cc1OC`, inactive: 95%; to `CCCCCn1cc2c(c1-c1ccc(Br)cc1)c(=O)n(C)c(=O)n2C`, inactive: 79%.

For the compound `Cc1ccc(-c2cc(C(F)F)n3ncc(C(=O)Nc4cn(C)nc4C)c3n2)cc1`, the survival was inactive: 89%.

On to `CCC(=O)Nc1ccc(CC)cc1-c1nc2ccccc2n(CC(=O)Nc2cccc(Cl)c2)c1=O`, for which the survival was inactive: 70%. Regarding `COc1cccc(C(=O)N2CCN(C3CCC(c4ccccc4)CC3)CC2)c1OC` (stereo not drawn), the survival is inactive: 96%. To `Cc1nc2ncnn2c(C)c1CCC(=O)N1CCN(c2ccccc2)CC1` belongs inactive: 91%. `CCc1ccccc1NC(=O)Cn1c(=O)n(-c2ccc(C)cc2)c(=O)c2c1c1cc(C)ccc1n2C`: the survival was inactive: 90%.

For `COc1ccc(OC)c(NC(=O)c2cc3cc(C)ccc3n2C)c1`, the survival is inactive: 51%. Turning to `Cc1ccccc1NC(=O)N1CCc2c(sc3c2CCCC3)C1c1ccccc1` (stereo not drawn), the survival was inactive: 102%. To `COc1ccc(NC(=O)c2ccc3nc(CCc4ccccc4)oc3c2)c(OC)c1` belongs inactive: 117%; to `O=C(NCCc1ccccc1)c1ccc(Cn2c(SCc3cccc(F)c3)nc3cccnc32)cc1`, inactive: 70%. Consider `CCc1ccc(-n2c(=O)c3sc4ccccc4c3n(CC(=O)NC3CCCCC3)c2=O)cc1`, for which the survival was inactive: 97%. To `CCC(C)C(=O)Nc1ccc(C(C)CC)cc1` (stereo not drawn) belongs inactive: 100%; to `CC(C)CCNC(=O)CSc1nc2ccccc2nc1Cc1ccccc1`, inactive: 82%. The figure for `Cc1ccc(NC(=O)Cn2nc(-c3ccncc3)ccc2=O)cc1Cl` is inactive: 120%; for `Cc1cc(NC(=O)CCS(=O)(=O)c2cc(Br)cc3c2N(C(=O)C2CC2)CC3)ccc1Br` it is inactive: 83%; for `COc1ccc(-c2c3c(=O)n(C)c(=O)n(C)c3c3c(-c4cccc(C)c4)nc4ccccc4n23)cc1` it is inactive: 83%. In the case of `OCCNc1nc2ccccc2n1CCOc1ccccc1`, the survival is inactive: 68%. To `C=CCn1c(-c2ccccc2)n[nH]c1=S` belongs inactive: 76%; to `CCOc1ccc(NC(=O)Cn2cc(C(=O)c3ccc(CC)cc3)c(=O)c3cc(OC)c(OC)cc32)cc1`, inactive: 98%; to `COc1ccc(S(=O)(=O)NCCCO)cc1-c1nnc2c3ccccc3c(C)nn12`, inactive: 124%.

With `CCc1ccc(CCC(=O)Nc2ccc(S(N)(=O)=O)cc2)o1`, the survival is inactive: 78%. `COc1ccc2cc3cc(C(=O)N4CCN(c5cccc(Cl)c5)CC4)sc3nc2c1`: the survival was inactive: 101%.

For `Cc1ccc(Nc2nc(C)cs2)cc1`, the survival was inactive: 82%.

Regarding `Cc1cc(Oc2c(C(F)(F)F)oc3c(CN4CCC(C)CC4)c(O)ccc3c2=O)cc(C)c1Cl`, the survival is inactive: 70%.

Consider `C=CCNc1sc(C(=O)C(C)(C)C)c(N)c1C#N`, for which the survival is inactive: 99%. In the case of `Cc1cccc(-n2ccnc2SCC(=O)Nc2ccc(F)cc2F)c1C`, the survival was inactive: 78%. Regarding `Cc1ccc(C)c(CN2CCC(CNC(=O)Nc3ccc(Br)cc3F)CC2)c1`, the survival is inactive: 81%.

Regarding `Cc1ccc(C)c(CNC(=O)c2ccc3c(c2)nc2n3CCCCC2)c1`, the survival is inactive: 91%. The figure for `Cc1ccc(S(=O)(=O)NC(=O)CC#N)cc1` is inactive: 95%; for `COc1cc2c(cc1OC)C(COc1ccc3c(C)cc(=O)oc3c1)N(C(=O)C(C)C)CC2` (stereo not drawn) it is inactive: 82%; for `CCOC(=O)c1nc(Nc2ccc(C(C)=O)cc2)c2ccccc2n1` it is inactive: 49%.

Consider `CN(C(=O)c1ccc(NC(=O)c2ccco2)cc1)C1CCCCC1`, for which the survival is inactive: 61%.

On to `O=C(Nc1c(C(=O)Nc2ccc(F)cc2)oc2ccccc12)c1cc2ccccc2o1`, for which the survival was active: 47%.
